# According to PubChem BioAssay AID488969 (Vanderbilt High Throughput Screening Facility, 2010):
# Over roughly 110,000 compounds, “z-score” has its median near -0.1; the highest 2% begin near 2. Some of the results follow.
# Biological target: Metabotropic glutamate receptor 8 (Rattus norvegicus) (UniProt P70579)
# Experiment: mGluR8 Gi/Go-coupled signaling modulation – cell-based, rat, thallium flux, HTS, primary screen (AID 488969)
# Conditions: HEK293 rat mGluR8, GIRK (G protein-gated inwardly rectifying potassium channel) thallium flux, FluoZin2; at 10 µM; stronger effect = higher value; submaximal glutamate (EC20) added with thallium
# Chain of UniProt P70579 (P70579 whole entry, looked up): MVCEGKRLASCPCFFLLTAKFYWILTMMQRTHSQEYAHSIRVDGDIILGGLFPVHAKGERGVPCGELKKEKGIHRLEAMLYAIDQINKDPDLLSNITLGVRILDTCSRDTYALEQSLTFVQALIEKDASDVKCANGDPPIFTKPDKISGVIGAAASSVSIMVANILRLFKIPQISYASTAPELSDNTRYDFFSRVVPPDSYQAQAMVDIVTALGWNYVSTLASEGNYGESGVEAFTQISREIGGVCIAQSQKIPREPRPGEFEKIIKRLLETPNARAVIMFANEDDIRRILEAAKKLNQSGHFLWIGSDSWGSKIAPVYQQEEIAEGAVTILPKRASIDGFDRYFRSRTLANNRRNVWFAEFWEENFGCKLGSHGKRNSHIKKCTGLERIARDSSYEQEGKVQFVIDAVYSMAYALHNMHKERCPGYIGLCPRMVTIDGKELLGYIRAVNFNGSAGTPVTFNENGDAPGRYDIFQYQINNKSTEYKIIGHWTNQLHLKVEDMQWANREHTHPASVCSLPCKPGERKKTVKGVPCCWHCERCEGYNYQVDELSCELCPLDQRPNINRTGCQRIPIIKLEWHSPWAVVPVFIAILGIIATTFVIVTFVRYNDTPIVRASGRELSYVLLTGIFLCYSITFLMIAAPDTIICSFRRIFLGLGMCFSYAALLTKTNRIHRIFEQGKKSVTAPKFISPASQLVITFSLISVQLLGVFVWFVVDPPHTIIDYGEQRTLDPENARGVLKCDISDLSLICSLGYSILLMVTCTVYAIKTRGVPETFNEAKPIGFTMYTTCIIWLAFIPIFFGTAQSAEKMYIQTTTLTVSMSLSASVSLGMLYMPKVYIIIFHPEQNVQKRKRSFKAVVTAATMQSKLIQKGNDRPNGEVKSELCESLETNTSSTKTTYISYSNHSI
row,Structure (SMILES),z-score
1,COC(=O)c1cc(NS(=O)(=O)c2ccc(NC(C)=O)cc2)cc(C(=O)OC)c1,0.683
2,Cc1nc2ccccc2n1CC(=O)OCC(=O)Nc1ccc2c(c1)OCCO2,0.0802
3,Cc1ccc(-n2c(O)c(C=NCc3ccccn3)c3ccccc3c2=O)cc1,-0.774
4,COc1ccc(NC(=O)C(NC(=O)CNC(C)=O)c2ccc(C)cc2)cc1 (stereo not drawn),0.128
5,C=C(Cl)COc1ccc2c(CCCC)cc(=O)oc2c1,-0.0779
6,O=C(NC(=S)N1CCOCC1)c1ccc([N+](=O)[O-])cc1,0.875
7,CC(OC(=O)c1ccc(NS(=O)(=O)c2cccs2)cc1)C(=O)N(C)C1CCCCC1 (stereo not drawn),0.149
8,CC1=C(C#N)C(=O)NC(C)(C)C1,0.0694
9,CCCCNCCCOc1cc(Cl)ccc1Cl,1.58
10,CS(=O)(=O)Nc1ccc(C(=O)Nc2ccccc2C(=O)N2CCCC2)cc1,-0.552
11,COc1cc(/C=N/NC(N)=S)ccc1OCC(=O)N1CCOCC1,-0.292
12,O=C(CCN1CCCC1)Nc1ccccc1,-0.0263
13,Cc1cccc(NC(=O)C2(C)CC3c4ccccc4C2c2ccccc23)c1C (stereo not drawn),-0.106
14,Cc1ccc(-c2n[nH]c(=S)n2/N=C/c2ccc(C)o2)cc1,-1.27
15,COc1ccc(C(=O)Nc2cc(C)nc3ccccc23)cc1OC,0.0436
16,O=CN1CCN(C(=O)Cc2ccc([N+](=O)[O-])cc2)CC1,0.0722
17,CCN1CCN(Cc2cc(=O)oc3cc4c(cc23)CCC4)CC1,1.86
18,Cc1cccc(Nc2nc(N)c([N+](=O)[O-])c(NCc3ccco3)n2)c1,2.38
19,Cc1ccc(OC(C)C(=O)Nc2ccc(S(=O)(=O)Nc3cc(C)on3)cc2)cc1 (stereo not drawn),-0.0628
20,O=C(c1ccc(S(=O)(=O)N2CCC(c3nc4ccccc4s3)CC2)cc1)N1CCCCC1,-0.509
21,O=c1c2ccccc2c2c(O)nc(-c3ccccc3)n2n1Cc1ccccc1,-0.192
22,Cc1ccc(Nc2nnns2)cc1C,0.249
23,CC(Sc1ccc2ccccc2n1)C(=O)O (stereo not drawn),-0.043
24,CCCc1cc(N2CCN(c3ccccn3)CC2)n2nc(C)c(-c3ccccc3)c2n1,0.0996
25,CCCC(=O)Nc1ccc(Cl)c(NC(=O)c2cccnc2Cl)c1,0.0107
26,CC1(C)Cc2cccc(OCC(=O)Nc3cc(C(F)(F)F)ccc3N3CCOCC3)c2O1,-0.14
27,C=CCN(C(=O)CNS(=O)(=O)c1ccccc1)C(C(=O)NCCOC)c1ccncc1 (stereo not drawn),-0.601

row,Structure (SMILES),z-score
1,C=CCn1c(O)c(C2=c3ccccc3=NC2=O)s/c1=N/c1nccs1,-0.29
2,Nc1nc(SCC(=O)c2ccc(Oc3ccccc3)cc2)n[nH]1,0.234
3,CN(Cc1ccccc1)C(=O)C1CCN(S(=O)(=O)c2cc([N+](=O)[O-])ccc2Cl)CC1,-0.357
4,O=C(c1ccc(-c2ccccc2)cc1)N1CCN(Cc2ccccn2)CC1,-0.515
5,CN(C(=O)CSc1nnc(Nc2ccccc2)s1)c1c(N)n(Cc2ccccc2)c(=O)[nH]c1=O,0.474
6,Cc1ccc(C)c(NC(=O)CCC(=O)NNC(=O)c2cccc([N+](=O)[O-])c2)c1,0.265
7,O=C(CN1CCN(S(=O)(=O)c2ccc(Br)cc2)CC1)N/N=C/c1cccs1,-0.589
8,COc1ccc(C2C(C(=O)Nc3ccccc3OC)=C(C)Nc3ncnn32)cc1 (stereo not drawn),-0.242
9,CCCCC(=O)Nc1ccc(NC(=O)c2ccccc2[N+](=O)[O-])cc1OC,-1.55
10,CN(C)S(=O)(=O)c1ccc(Cl)c(NC(=O)COC(=O)CCSc2ccccc2)c1,-0.163
11,O=C(CN1C(=O)c2ccccc2C1=O)N1CCN(c2nnc(-c3ccccc3)c3ccccc23)CC1,0.179
12,COc1ccc(Oc2cc(F)nc(N)n2)cc1,-0.157
13,Cn1nnc2cc(C(=O)NC3CCCCC3)ccc21,0.38
14,Cc1ccc(Cn2nc(C)c(NC(=O)c3cc(-c4ccc5c(c4)OCO5)on3)c2C)cc1,-1.01
15,O=C(CN(c1cccc(C(F)(F)F)c1)S(=O)(=O)c1ccc(Cl)c([N+](=O)[O-])c1)NCc1ccccc1,1.03
16,Nc1c(C(=O)N2CCCCC2)sc(=S)n1-c1ccccc1,-0.163
17,COc1ccc(C2/C(=C(\O)c3ccc4c(c3)OCCO4)C(=O)C(=O)N2Cc2ccco2)c(OC)c1 (stereo not drawn),-1.9
18,O=C(Cn1ncc2c(=O)oc3ccccc3c21)N1CCN(C(=O)c2ccco2)CC1,-0.199
19,Cc1cccc2cc(C#N)c(SCC(=O)NCC3CCCO3)nc12 (stereo not drawn),0.355
20,CCOC(=O)C1CCN(C(=O)Nc2ccc3nc(-c4ccco4)c(-c4ccco4)nc3c2)CC1,-0.816
21,O=C(NC1CCCCC1)c1ccc(S(=O)(=O)N2CCCC2)cc1,-0.138
22,Cc1nc(SC2CC(=O)N(c3ccc([N+](=O)[O-])cc3)C2=O)nc2c1CCCC2 (stereo not drawn),-0.101
23,Cc1ccc(O)c(/C=N/NC(=O)C2=NNC(c3ccccc3)(c3ccccc3)C2)c1,0.157
24,Cc1cc(C(=O)CSc2nnc(-c3ccco3)o2)c(C)n1-c1ccc2c(c1)OCCO2,0.71
25,Cc1ccccc1OCCn1c(=O)oc2ccccc21,-0.479
26,CCOC(=O)c1cnc2cc(C)nn2c1C,0.351
